Molecular target: PAF receptor (Human Platelet Membrane Receptors) (Homo sapiens, UniProt P25105)
Test: Inhibition of ^3 H-PAF Binding to Human Platelet Membrane Receptors
Details: read-out: Inhibition of ^3 H-PAF Binding to Human Platelet (IC50) μM; 0.75 nM ^3 H-PAF; 24° C., 30 minutes
Protocol: Inhibition of ^3 H-PAF Binding to Human Platelet Membrane Receptors
Receptor Preparation: Ten units of in-dated human packed platelets, each containing 45-65 ml platelet rich-plasma, were purchased from a commercial blood bank. Disposable plasticware was used throughout for receptor preparation. The units were pooled and a 1 ml aliquot was removed for determination of platelet concentration, using a Coulter Counter. The remaining platelet rich plasma was dispensed into 50 ml conical tubes and centrifuged at room temperature for 15 minutes at 3000 RPM (2300×g).Plasma was decanted and the platelets were resuspended in 35 ml of buffer 10 mM Trizma 7.0, 2 mM EDTA (dipotassium salt), and 150 mM KCl) and transferred to fresh tubes, which were centrifuged again as above. The platelets were washed 3 times, avoiding contaminating erythrocytes at the bottom of the pellets. Pellets were consolidated at each step, and by the last wash with EDTA/KCl buffer, most of the erythrocytes were in 1 tube. The pellets were resuspended in buffer containing 10 mM Trizma 7.0 with 10 mM CaCl2. Following centrifugation, the buffer was decanted and the pellets were resuspended in the CaCl2 buffer, avoiding erythrocyte contamination by recovering less than 100% of the platelet pellets. The resuspended platelets were dispensed in 8-10 ml aliquots into Corex tubes and disrupted by three cycles of freezing (dry ice/ethanol) and thawing (24° C.). The tubes were centrifuged at 40,000×g for 20 minutes at 4° C. Supernatants were decanted and each pellet was resuspended in 5-7 ml 10 mM Trizma 7.0. All resuspended pellets were pooled and aliquots of about 1200 ml were dispensed into 1.5 ml microfuge tubes and frozen at -70° C. Protein content was determined by a fluorescamine protein assay.
Assay Methods: Receptor Characterization--Each receptor preparation was evaluated to determine the number of receptor populations, the number of PAF receptor equivalents/mg protein and the dissociation constant (KD) for PAF binding. This required 2-3 experiments in which the protein concentration was held constant and the ^3 H-PAF ligand concentration was varied from approximately 0.10-2.5 nM and the data was analyzed by Scatchard methodology. Total incubation volume was 250 ml for these procedures and incubations were conducted at 24° C. for 30 minutes. For further experimentation, total incubation volumes are 500 ml. Protein and ligand concentrations were adjusted to give 0.075 nM receptor equivalents in the presence of 0.75 nM ^3 H-PAF. Each receptor preparation was then used to determine the dose--response displacement relationship of unlabeled PAF and the PAF antagonist, triazolam. As long as the KD value and IC50 values for PAF and triazolam were consistent with similar data collected from past receptor preparations used in the assay, the new receptor preparation was used for evaluating compounds.
Assay Methods: Routine Assay of Compounds--The compounds were weighed precisely and solubilized in quantities of DMSO such that a 5 ml aliquot in the incubate would deliver the desired compound concentration. Compounds tested for the first time in this assay were evaluated at a concentration of 50 mM in the incubation medium. All compounds were generally solubilized in DMSO for about 2 hours prior to assay. Triazolam was always included in each screening assay as a compound inhibition control. A standard concentration of 50 mM inhibited ^3 H-PAF binding by approximately 50%. Nonspecific binding control solution was made by drying to completion about 26.2 ml unlabeled PAF under a stream of argon. PAF was resolubilized in 1000 ml DMSO. When delivered in a 5 ml aliquot, the final concentration of 1 mM PAF in the incubate exceeded by 1000-fold the concentration of ^3 H-PAF.
All buffers containing proteins were made at room temperature on the day of assay. Assay buffer was prepared by adding 125 mg human albumin to 25 ml of stock buffer (10 mM Trizma 7.4 with 20 mM CaCl2). […]

Sequence of UniProt P25105 (P25105 whole entry): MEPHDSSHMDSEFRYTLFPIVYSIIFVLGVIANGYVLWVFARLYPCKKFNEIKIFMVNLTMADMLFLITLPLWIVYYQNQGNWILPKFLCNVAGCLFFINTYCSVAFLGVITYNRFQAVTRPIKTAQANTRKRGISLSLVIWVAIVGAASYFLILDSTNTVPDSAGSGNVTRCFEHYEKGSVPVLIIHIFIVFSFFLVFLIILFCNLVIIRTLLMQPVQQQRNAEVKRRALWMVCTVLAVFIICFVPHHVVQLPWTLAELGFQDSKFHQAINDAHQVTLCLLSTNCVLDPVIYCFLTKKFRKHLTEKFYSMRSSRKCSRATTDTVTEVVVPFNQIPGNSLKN

IC50 [µM] | SMILES
0.055 | COc1cc(C(=O)N(C2CCCC2)C2CCCC2)ccc1Cn1ccc2ncnc-2c1 [5-[4-(N,N-dicyclopentylcarboxamido)-2-methoxybenzyl]imidazo[4,5-c]pyridine]
2.82 | CC(C)CN(C(=O)c1ccc(Cn2ccc3ncnc-3c2)cc1)C1CCCCC1 [5-[4-(N-isobutyl-N-cyclohexylcarboxamido)benzyl]imidazo[4,5-c]pyridine]
0.442 | CC(C)N(C(=O)c1ccc(Cn2ccc3ncnc-3c2)c(F)c1)C1CCCCC1 [5-[4-(N-isopropyl-N-cyclohexylcarboxamido)-2-fluorobenzyl]imidazo[4,5-c]pyridine]
0.58 | CCC(C)N(C(=O)c1ccc(Cn2ccc3ncnc-3c2)cc1)C1CCCCC1 (stereo not drawn) [5-[4-(N-sec.butyl-N-cyclohexylcarboxamido)benzyl]imidazo[4,5-c]pyridine]
0.0302 | COc1cc(C(=O)N(C2CCCCC2)C2CCCC2)ccc1Cn1ccc2ncnc-2c1 [5-[4{-(N-cyclopentyl,N-cyclohexyl)carboxamido}-2-methoxybenzyl]imidazo[4,5-c]-pyridine]

Same assay, conditions: read-out: Inhibition of ^3 H-PAF Binding to Human Platelet, % inhib

inhibition at 50 µM [%] | SMILES
26.1 | CC(C)N(C(=O)c1cccc(Cn2ccc3ncnc-3c2)c1)C1CCCCC1 [5-[3-(N-isopropyl-N-cyclohexylcarboxamido)benzyl]imidazo[4,5-c]pyridine]
38 | CN(C(=O)c1cccc(Cn2ccc3ncnc-3c2)c1)C1CCCCC1 [5-[3-(N-methyl-N-cyclohexylcarboxamido)benzyl]imidazo[4,5-c]pyridine]
70.8 | Cc1nc2ccn(Cc3ccc(C(=O)N(C4CCCC4)C4CCCC4)cc3)cc-2n1 [5-[4-(N,N-dicyclopentylcarboxamido)benzyl]-2-methylimidazo[4,5-c]pyridine]
87.7 | CC(C)(C)N(C(=O)c1ccc(Cn2ccc3ncnc-3c2)cc1)C1CCCCC1 [5-[4-(N-tert.butyl-N-cyclohexylcarboxamido)benzyl]imidazo[4,5-c]pyridine]

Source: patent publication US5227384A, “5-substituted [4,5-c] imidazopyridines and pharmaceutical use thereof” (G. D. Searle & Co., priority 1991, dated 1993)
